Laboratory results published in ChEMBL document CHEMBL1201862, “PubChem BioAssay data set” (2004).
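Briefly, cells in 96-well plates were exposed to five compound concentrations for 48 h, and endpoints were estimated by linear interpolation. At the GI50, growth is halved.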 Active and inactive are the calls of the source. Rule as the data show it: active = GI50 up to about 1.1 µM and inactive = higher.

Columns and labels:
Test in all cases: growth of human tumour cells (NCI), 48 h
786-0 = test system: 786-0
A498 = test system: A498
A549 = test system: A549
ACHN = test system: ACHN
BT-549 = test system: BT-549
CAKI-1 = test system: CAKI-1
CCRF-CEM = test system: CCRF-CEM
COLO 205 = test system: COLO 205
DU-145 = test system: DU-145
EKVX = test system: EKVX
HCT-116 = test system: HCT-116
HCT-15 = test system: HCT-15
HL-60 = test system: HL-60
HOP-62 = test system: HOP-62
HT-29 = test system: HT-29
Hs-578T = test system: Hs-578T
IGROV-1 = test system: IGROV-1
K562 = test system: K562
KM12 = test system: KM12
LOX IMVI = test system: LOX IMVI
M14 = test system: M14
MCF7 = test system: MCF7
MDA-MB-231 = test system: MDA-MB-231
MDA-MB-435 = test system: MDA-MB-435
MDA-N = test system: MDA-N
MOLT-4 = test system: MOLT-4
Malme-3M = test system: Malme-3M
NCI-H226 = test system: NCI-H226
NCI-H23 = test system: NCI-H23
NCI-H522 = test system: NCI-H522
NCI/ADR-RES = test system: NCI/ADR-RES
OVCAR-3 = test system: OVCAR-3
OVCAR-4 = test system: OVCAR-4
OVCAR-5 = test system: OVCAR-5
OVCAR-8 = test system: OVCAR-8
PC-3 = test system: PC-3
RPMI-8226 = test system: RPMI-8226
RXF 393 = test system: RXF 393
SF-268 = test system: SF-268
SF-295 = test system: SF-295
SK-MEL-28 = test system: SK-MEL-28
SK-MEL-2 = test system: SK-MEL-2
SK-MEL-5 = test system: SK-MEL-5
SK-OV-3 = test system: SK-OV-3
SN12C = test system: SN12C
SNB-19 = test system: SNB-19
SNB-75 = test system: SNB-75
SR = test system: SR
SW-620 = test system: SW-620
T47D = test system: T47D
TK-10 = test system: TK-10
U-251 = test system: U-251
UACC-257 = test system: UACC-257
UACC-62 = test system: UACC-62
UO-31 = test system: UO-31

Measured: GI50

CN1C2CCC1CC(OC(=O)C(O)c1ccccc1)C2 (stereo not given)
inactive: 786-0 = > 100 µM | A498 = > 100 µM | A549 = > 100 µM | ACHN > 100 µM | BT-549 = > 100 µM | CAKI-1 = > 100 µM | CCRF-CEM > 100 µM | COLO 205 = > 100 µM | DU-145 = > 100 µM | EKVX > 100 µM | HCT-116 = > 100 µM | HL-60 = > 100 µM | HOP-62 = > 100 µM | HT-29 = > 100 µM | Hs-578T 87.5 µM | IGROV-1 = > 100 µM | K562 = > 100 µM | KM12 = > 100 µM | LOX IMVI > 100 µM | M14 = > 100 µM | MCF7 = > 100 µM | MDA-MB-231 = > 100 µM | MDA-MB-435 = > 100 µM | MDA-N > 100 µM | MOLT-4 = > 100 µM | Malme-3M > 100 µM | NCI-H226 = > 100 µM | NCI-H23 = > 100 µM | NCI-H522 = > 100 µM | NCI/ADR-RES > 100 µM | OVCAR-3 = > 100 µM | OVCAR-4 = > 100 µM | OVCAR-5 = > 100 µM | OVCAR-8 = > 100 µM | PC-3 = > 100 µM | RPMI-8226 = 31 µM | RXF 393 = > 100 µM | SF-268 = > 100 µM | SF-295 = > 100 µM | SK-MEL-28 = > 100 µM | SK-MEL-2 = > 100 µM | SK-MEL-5 = > 100 µM | SK-OV-3 = > 100 µM | SN12C > 100 µM | SNB-19 = > 100 µM | SNB-75 = > 100 µM | SR > 100 µM | SW-620 = > 100 µM | T47D > 100 µM | TK-10 = > 100 µM | U-251 = > 100 µM | UACC-257 = > 100 µM | UACC-62 = > 100 µM | UO-31 = > 100 µM
> 100 µM: HCT-15
